According to PMC9008061:
No constants are given. Whether binding was seen depends on the method and setting. In cells and extracts the contact can be indirect. Some entries that bind do so weakly or less than the wild type. Tags and fused reporters may be left off the sequences shown.

Chains of the proteins cited; added tags and fusions are not shown. Lines headed by an entry give the natural chain unless they say otherwise; changes in a name come on top.
UniProt P43694: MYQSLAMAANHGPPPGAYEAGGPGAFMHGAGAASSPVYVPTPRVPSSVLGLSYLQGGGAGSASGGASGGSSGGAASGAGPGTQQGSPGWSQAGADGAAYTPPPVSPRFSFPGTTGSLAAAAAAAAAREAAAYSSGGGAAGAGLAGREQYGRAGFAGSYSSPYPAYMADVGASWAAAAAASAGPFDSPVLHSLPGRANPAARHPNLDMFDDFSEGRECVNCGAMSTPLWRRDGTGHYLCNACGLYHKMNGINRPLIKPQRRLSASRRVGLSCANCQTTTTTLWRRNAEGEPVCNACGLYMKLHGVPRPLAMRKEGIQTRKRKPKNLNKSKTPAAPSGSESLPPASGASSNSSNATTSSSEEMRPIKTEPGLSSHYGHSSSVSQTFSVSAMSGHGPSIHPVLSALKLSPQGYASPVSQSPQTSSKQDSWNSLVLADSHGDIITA

T1: 3xFLAG-tagged estrogen-related receptor γ (3xFLAG-ERRγ) (human) (UniProt P62508)
T1 sequence: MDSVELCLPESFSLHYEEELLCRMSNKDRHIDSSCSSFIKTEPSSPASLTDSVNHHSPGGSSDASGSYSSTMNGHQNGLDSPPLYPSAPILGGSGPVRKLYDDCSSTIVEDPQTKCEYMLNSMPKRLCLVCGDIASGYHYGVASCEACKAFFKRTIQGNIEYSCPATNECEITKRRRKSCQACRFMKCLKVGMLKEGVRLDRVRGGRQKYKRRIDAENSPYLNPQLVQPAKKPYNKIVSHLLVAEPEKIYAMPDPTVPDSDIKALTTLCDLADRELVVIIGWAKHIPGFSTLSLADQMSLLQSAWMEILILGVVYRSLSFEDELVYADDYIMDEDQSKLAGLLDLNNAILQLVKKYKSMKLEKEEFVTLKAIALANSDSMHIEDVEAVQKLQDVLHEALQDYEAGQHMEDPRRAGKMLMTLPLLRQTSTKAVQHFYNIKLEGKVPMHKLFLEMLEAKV

T2: FLAG-tagged estrogen-related receptor γ (ERRγ), adenovirally overexpressed (human) (UniProt P62508)
T2 sequence: T1 sequence

B1: peroxisome proliferator-activated receptor gamma coactivator 1 α tagged with Myc/His (PGC-1α-Myc/His) (protein, UniProt O70343 1-797)
chain: MAWDMCSQDSVWSDIECAALVGEDQPLCPDLPELDLSELDVNDLDTDSFLGGLKWCSDQSEIISNQYNNEPANIFEKIDEENEANLLAVLTETLDSLPVDEDGLPSFDALTDGAVTTDNEASPSSMPDGTPPPQEAEEPSLLKKLLLAPANTQLSYNECSGLSTQNHAANHTHRIRTNPAIVKTENSWSNKAKSICQQQKPQRRPCSELLKYLTTNDDPPHTKPTENRNSSRDKCASKKKSHTQPQSQHAQAKPTTLSLPLTPESPNDPKGSPFENKTIERTLSVELSGTAGLTPPTTPPHKANQDNPFKASPKLKPSCKTVVPPPTKRARYSECSGTQGSHSTKKGPEQSELYAQLSKSSGLSRGHEERKTKRPSLRLFGDHDYCQSLNSKTDILINISQELQDSRQLDFKDASCDWQGHICSSTDSGQCYLRETLEASKQVSPCSTRKQLQDQEIRAELNKHFGHPCQAVFDDKSDKTSELRDGDFSNEQFSKLPVFINSGLAMDGLFDDSEDESDKLSYPWDGTQPYSLFDVSPSCSSFNSPCRDSVSPPKSLFSQRPQRMRSRSRSFSRHRSCSRSPYSRSRSRSPGSRSSSRSCYYYESSHYRHRTHRNSPLYVRSRSRSPYSRRPRYDSYEAYEHERLKRDEYRKEHEKRESERAKQRERQKQKAIEERRVIYVGKIRPDTTRTELRDRFEVFGEIEECTVNLRDDGDSYGFITYRYTCDAFAALENGYTLRRSNETDFELYFCGRKQFFKSNYADLDTNSDDFDPASTKSKYDSLDFDSLLKEAQRSLRR

How the values were obtained:
[1] = target: T1, 3xFLAG-tagged estrogen-related receptor γ (3xFLAG-ERRγ) (human); assay: co-IP; nuclear lysate of AD-293 transfected with GATA4-HA, 3xFLAG-ERRγ and PGC-1α-Myc/His; lysis buffer 10 mM HEPES pH7.9, 3 mM MgCl2, 5 mM KCl, 150 mM NaCl, 0.5% NP-40, benzonase; IP with antibodies to FLAG or HA epitope tags on magnetic beads, 30 min at 4 °C; immunoblot
[2] = target: T2, FLAG-tagged estrogen-related receptor γ (ERRγ), adenovirally overexpressed (human); assay: co-IP; nuclear lysate of hiPSC-CMs overexpressing FLAG-ERRγ by adenovirus; lysis buffer 10 mM HEPES pH7.9, 3 mM MgCl2, 5 mM KCl, 150 mM NaCl, 0.5% NP-40, benzonase; antibody-conjugated magnetic beads, 90 min at 4 °C; immunoblot
[3] = target: HA-tagged GATA-binding protein 4 (GATA4-HA) (human) (UniProt P43694); assay: co-IP; nuclear lysate of AD-293 transfected with GATA4-HA, 3xFLAG-ERRγ and PGC-1α-Myc/His; lysis buffer 10 mM HEPES pH7.9, 3 mM MgCl2, 5 mM KCl, 150 mM NaCl, 0.5% NP-40, benzonase; IP with antibodies to FLAG or HA epitope tags on magnetic beads, 30 min at 4 °C; immunoblot

Molecule | binding [1] | binding [2] | binding [3]
HA-tagged GATA-binding protein 4 (GATA4-HA) (from UniProt P43694-1 1-442) | binds | – | –
endogenous GATA-binding protein 4 (GATA4) of hiPSC-CMs (from UniProt P43694 1-442) | – | binds | –
HA-tagged GATA4 G296S mutant (from UniProt P43694-1 1-442) | binds | – | –
B1 | binds | – | no binding
